# From the supplement of paper PMC8728848
# This is one part of the list.
# B1: Epa22 (Candida glabrata) (protein)
# chain: MGSSHHHHHHSSGLVPRGSHMKRALSSQNPFGYPIGCSPQSTNVIPGLTMELYSYPIVSGTPPNCYDASYVDPEYPRTGYLKRKMIGKSTGVTGSLNYKFSVEKACMVKYGNLPAGYNYNEPLTVSNFTMLLYGYFKPQTSGIHTFFVNADDLLYINFGAGNAFDCCKREDSKFKLGEYVAYDIWHVDSSKNKVSLNLEKDVYYPIRMFFNNIGKDSSLDLSFSVNGAVEHITDFSGYLYSVPDQPDACPAPIGYDTTCK
# Key:
# Assay in all cases: glycan array binding signal (z-score within array); higher = stronger binding
# Details in all cases: glycan notation: IUPAC condensed, linker removed
# [1] = molecular target: Neu5Ac(a2-6)Gal(b1-4)GlcNAc(b1-2)Man(a1-3)[Neu5Ac(a2-3)Gal(b1-4)GlcNAc(b1-2)Man(a1-6)]Man(b1-4)GlcNAc(b1-4)GlcNAc
# Summary of the method: (§1)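 Negative Z-scores can be read as non-binding. The Z-score is calculated within each array and then averaged across arrays of one protein sequence at different concentrations or buffers and across linkers. Arrays, 3228 in all, were curated from the Consortium for Functional Glycomics database and kept only where the protein sequence was available.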
# [2] = molecular target: Neu5Ac(a2-6)Gal(b1-4)GlcNAc(b1-2)Man(a1-3)[Neu5Ac(a2-6)Gal(b1-4)GlcNAc(b1-2)Man(a1-6)]Man(b1-4)GlcNAc(b1-4)GlcNAc
# Summary of the method: as §1
# [3] = molecular target: Neu5Ac(a2-6)Gal(b1-4)GlcNAc(b1-2)Man(a1-3)[Neu5Ac(a2-6)Gal(b1-4)GlcNAc(b1-2)Man(a1-6)]Man(b1-4)GlcNAc(b1-4)[Fuc(a1-6)]GlcNAc
# Summary of the method: as §1
# [4] = molecular target: Neu5Ac(a2-6)Gal(b1-4)GlcNAc(b1-2)Man(a1-6)Man(b1-4)GlcNAc(b1-4)GlcNAc
# Summary of the method: as §1
# [5] = molecular target: Neu5Ac(a2-6)Gal(b1-4)GlcNAc(b1-2)Man(a1-6)[Gal(b1-4)GlcNAc(b1-2)Man(a1-3)]Man(b1-4)GlcNAc(b1-4)GlcNAc
# Summary of the method: as §1
# [6] = molecular target: Neu5Ac(a2-6)Gal(b1-4)GlcNAc(b1-2)Man(a1-6)[GlcNAc(b1-2)Man(a1-3)]Man(b1-4)GlcNAc(b1-4)GlcNAc
# Summary of the method: as §1
# [7] = molecular target: Neu5Ac(a2-6)Gal(b1-4)GlcNAc(b1-2)Man(a1-6)[Man(a1-3)]Man(b1-4)GlcNAc(b1-4)GlcNAc
# Summary of the method: as §1
# [8] = molecular target: Neu5Ac(a2-6)Gal(b1-4)GlcNAc(b1-2)[Neu5Ac(a2-6)Gal(b1-4)GlcNAc(b1-4)]Man(a1-3)[GlcNAc(b1-4)][Neu5Ac(a2-6)Gal(b1-4)GlcNAc(b1-2)[Neu5Ac(a2-6)Gal(b1-4)GlcNAc(b1-6)]Man(a1-6)]Man(b1-4)GlcNAc(b1-4)GlcNAc
# Summary of the method: as §1
# [9] = molecular target: Neu5Ac(a2-6)Gal(b1-4)GlcNAc(b1-2)[Neu5Ac(a2-6)Gal(b1-4)GlcNAc(b1-4)]Man(a1-3)[GlcNAc(b1-4)][Neu5Ac(a2-6)Gal(b1-4)GlcNAc(b1-4)Man(a1-6)]Man(b1-4)GlcNAc(b1-4)GlcNAc
# Summary of the method: as §1
# [10] = molecular target: Neu5Ac(a2-6)Gal(b1-4)GlcNAc(b1-2)[Neu5Ac(a2-6)Gal(b1-4)GlcNAc(b1-6)]Man(a1-6)[Neu5Ac(a2-6)Gal(b1-4)GlcNAc(b1-2)Man(a1-3)][GlcNAc(b1-4)]Man(b1-4)GlcNAc(b1-4)GlcNAc
# Summary of the method: as §1
# [11] = molecular target: Neu5Ac(a2-6)Gal(b1-4)GlcNAc(b1-3)Gal(b1-3)GlcNAc
# Summary of the method: as §1
# [12] = molecular target: Neu5Ac(a2-6)Gal(b1-4)GlcNAc(b1-3)Gal(b1-4)GlcNAc
# Summary of the method: as §1
# [13] = molecular target: Neu5Ac(a2-6)Gal(b1-4)GlcNAc(b1-3)Gal(b1-4)GlcNAc(b1-2)Man(a1-3)[Neu5Ac(a2-6)Gal(b1-4)GlcNAc(b1-3)Gal(b1-4)GlcNAc(b1-2)Man(a1-6)]GalNAc
# Summary of the method: as §1
# [14] = molecular target: Neu5Ac(a2-6)Gal(b1-4)GlcNAc(b1-3)Gal(b1-4)GlcNAc(b1-3)Gal(b1-4)GlcNAc
# Summary of the method: as §1
# [15] = molecular target: Neu5Ac(a2-6)Gal(b1-4)GlcNAc(b1-3)Gal(b1-4)GlcNAc(b1-3)Gal(b1-4)GlcNAc(b1-2)Man(a1-3)[Neu5Ac(a2-6)Gal(b1-4)GlcNAc(b1-3)Gal(b1-4)GlcNAc(b1-3)Gal(b1-4)GlcNAc(b1-2)Man(a1-6)]GalNAc
# Summary of the method: as §1
# [16] = molecular target: Neu5Ac(a2-6)Gal(b1-4)GlcNAc(b1-3)Gal(b1-4)GlcNAc(b1-3)GalNAc
# Summary of the method: as §1
# [17] = molecular target: Neu5Ac(a2-6)Gal(b1-4)GlcNAc(b1-3)Gal(b1-4)GlcNAc(b1-3)[Neu5Ac(a2-6)Gal(b1-4)GlcNAc(b1-3)Gal(b1-4)GlcNAc(b1-6)]GalNAc
# Summary of the method: as §1
# [18] = molecular target: Neu5Ac(a2-6)Gal(b1-4)GlcNAc(b1-3)Gal(b1-4)GlcNAc(b1-6)[Gal(b1-3)]GalNAc
# Summary of the method: as §1
# [19] = molecular target: Neu5Ac(a2-6)Gal(b1-4)GlcNAc(b1-3)Gal(b1-4)[Fuc(a1-3)]GlcNAc(b1-3)Gal(b1-4)[Fuc(a1-3)]GlcNAc
# Summary of the method: as §1
# [20] = molecular target: Neu5Ac(a2-6)Gal(b1-4)GlcNAc(b1-3)GalNAc
# Summary of the method: as §1
# [21] = molecular target: Neu5Ac(a2-6)Gal(b1-4)GlcNAc(b1-3)[Neu5Ac(a2-6)Gal(b1-4)GlcNAc(b1-6)]GalNAc
# Summary of the method: as §1
# [22] = molecular target: Neu5Ac(a2-6)Gal(b1-4)GlcNAc(b1-6)GalNAc
# Summary of the method: as §1
# [23] = molecular target: Neu5Ac(a2-6)Gal(b1-4)GlcNAc(b1-6)[Gal(b1-3)GlcNAc(b1-3)]Gal(b1-4)Glc
# Summary of the method: as §1
# [24] = molecular target: Neu5Ac(a2-6)Gal(b1-4)GlcNAc(b1-6)[Gal(b1-3)]GalNAc
# Summary of the method: as §1
# [25] = molecular target: Neu5Ac(a2-6)Gal(b1-4)GlcNAc6S
# Summary of the method: as §1
# [26] = molecular target: Neu5Ac(a2-6)GalNAc
# Summary of the method: as §1
# [27] = molecular target: Neu5Ac(a2-6)GalNAc(b1-4)GlcNAc
# Summary of the method: as §1
# [28] = molecular target: Neu5Ac(a2-6)GalNAc(b1-4)GlcNAc6S
# Summary of the method: as §1
# [29] = molecular target: Neu5Ac(a2-6)GlcNAc(b1-4)GlcNAc
# Summary of the method: as §1
# [30] = molecular target: Neu5Ac(a2-6)GlcNAc(b1-4)GlcNAc(b1-4)GlcNAc
# Summary of the method: as §1
binder,measurement,setting,value
B1,glycan array binding signal (z-score),[1],-0.328
same,glycan array binding signal (z-score),[2],-0.37
same,glycan array binding signal (z-score),[3],-0.359
same,glycan array binding signal (z-score),[4],-0.426
same,glycan array binding signal (z-score),[5],-0.38
same,glycan array binding signal (z-score),[6],-0.338
same,glycan array binding signal (z-score),[7],-0.396
same,glycan array binding signal (z-score),[8],-0.37
same,glycan array binding signal (z-score),[9],-0.386
same,glycan array binding signal (z-score),[10],-0.404
same,glycan array binding signal (z-score),[11],-0.39
same,glycan array binding signal (z-score),[12],-0.293
same,glycan array binding signal (z-score),[13],-0.345
same,glycan array binding signal (z-score),[14],-0.398
same,glycan array binding signal (z-score),[15],-0.143
same,glycan array binding signal (z-score),[16],-0.322
same,glycan array binding signal (z-score),[17],-0.304
same,glycan array binding signal (z-score),[18],-0.114
same,glycan array binding signal (z-score),[19],-0.356
same,glycan array binding signal (z-score),[20],-0.308
same,glycan array binding signal (z-score),[21],-0.246
same,glycan array binding signal (z-score),[22],-0.347
same,glycan array binding signal (z-score),[23],-0.175
same,glycan array binding signal (z-score),[24],0.338
same,glycan array binding signal (z-score),[25],0.45
same,glycan array binding signal (z-score),[26],-0.41
same,glycan array binding signal (z-score),[27],-0.397
same,glycan array binding signal (z-score),[28],-0.331
same,glycan array binding signal (z-score),[29],-0.329
same,glycan array binding signal (z-score),[30],-0.37
